Paper PMC2551611 (BMC Microbiology, 2008)

B1: unlabeled p63 peptide (last 63 amino acid residues of human nucleolin) (peptide)
peptide: not shown
notes: also called RGG domain of nucleolin; source: synthetic peptide
B2: biotin-labeled p63 peptide (last 63 amino acid residues of human nucleolin, RGG carboxy-terminal domain) (peptide)
peptide: not shown
notes: nucleolin, human, the last 63 amino acid residues (C-terminal RGG domain); The biotin came in as a Lys-biotin derivative, so there may be one extra biotinylated Lys before the 63 printed residues; also called biotinylated p63 peptide; RGG p63 carboxy-terminal domain of nucleolin; source: synthetic peptide; not shown: biotin, N-terminal, kept

Target: T1, recombinant His-EF-Tu (LVS elongation factor Tu with polyhistidine tag) (Francisella tularensis LVS)
T1 construct: also called recombinant EF-Tu; His-fusion EF-Tu protein
Test: pull-down
Details: both partners purified

| Binder | binding result |
| --- | --- |
| B1 | binds |
| B2 | binds |
